We go through 38 sequences from the supplement of paper PMC10338343.

± gives the standard deviation. The list shows a part of the results, in another mix than the full data. Bounds are passed on as bounds.
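Further: 1 nM active piRISC with 0.1 nM target library at 33 °C single turnover.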

For this assay, the system named is MIWI (PIWIL1) piRISC loaded with L1MC piRNA (30 nt). Kind of assay: pre-steady-state target cleavage rate (min^-1); MIWI and MILI are mouse PIWI proteins and EfPiwi is from a freshwater sponge; tags in brackets are library labels; higher = faster piRNA-guided slicing of the target. The settings on record: guide: L1MC piRNA 5'p-UAACUAAAUACUAUGCAAGCUGUAGGUCCU; auxiliary factor: 500 nM mouse GTSF1. In a few lines:
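Active affinity-purified piRISC carrying one synthetic guide (1 nM) was mixed with a transcribed, DNA-blocked target RNA library […] in HEPES–potassium acetate buffer at 33 °C for 0–8 or 0–960 min, with or without 500 nM GTSF1 partner protein. Uncleaved targets were then sequenced and normalised to depth and to weakly complementary targets. Three trials were pooled, and k3 was capped at 0.0001 min^-1. A burst-and-steady-state fit was applied to obtain the pre-steady-state cleavage rate.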
For the sequence UCCUCCUACAGCUUGCAUAGUUAUUACAAA, the “pre-steady-state target cleavage rate” value worked out at 0.0164 ± 0.007.
In the case of UCCUGGUACAGGAAGCAUAGUAUUUAGUUA it was 0.165 ± 0.022; in that of UCCUGGAUGUCGUUGCAUAGUAUAUACUUA, below 0.0001; in that of UCCUGGAUGUCGAUGCAUAGUAUUUACGUUA, 0.00834 ± 0.004.
On to AGCACCUACAGCUUGCAUAGUAUUUAGAAA, for which the “pre-steady-state target cleavage rate” value is 0.753 ± 0.12.
Under UGGACCUACUCGUUGCAUAGUAUUUUCAAA stands 0.0138 ± 0.0032.
For UCCUCCUACAGCUUCCAUAGUAUUUAGUAA, the “pre-steady-state target cleavage rate” value was found to be 0.0822 ± 0.026.
UCCUGCUACAGGUUGCAUAGUAUUUAGAAA: the “pre-steady-state target cleavage rate” value turned out to be 0.107 ± 0.018.
Under UCCUCCUACAGCUACCAUAGUAUUUAGUUA stands 0.412 ± 0.037.
In the case of UCCUCCUACAGCUUGCAUAGUAAAAUCAAA, the “pre-steady-state target cleavage rate” value came to 0.159 ± 0.041.
For the sequence UCCUGGAUGUGCAUGCAUAGUAUAUAGUUA, the “pre-steady-state target cleavage rate” value was 0.0113 ± 0.005.
Under UCCUGGAACAGCUUCCAUAGUAUUUUGUUA stands 0.013 ± 0.0064.
Consider UCCUGCUACAGCUUCGAUAGUAUUUAGUAA, for which the “pre-steady-state target cleavage rate” value is 0.291 ± 0.035.
Consider AGGACCUACAGCUUGCAUACAUUUUAGUUA, for which the “pre-steady-state target cleavage rate” value was determined as 0.0106 ± 0.0061.
For the sequence UCCACCUACAGCUUGCAUCAGUAUUUAGUUA, the “pre-steady-state target cleavage rate” value amounted to 0.0253 ± 0.011.
Turning to AGGACCUACAGCUUGCUAUGUAUUUAGAAA, the “pre-steady-state target cleavage rate” value is 0.147 ± 0.047.
Under UCCUGGAACAGCUUGCAUAGUUUUUUCAAA stands 0.0225 ± 0.0083.
For UCCUGGAUGUGCUUGCAAUGUAUUUAGUUA, the “pre-steady-state target cleavage rate” value was 0.0034 ± 0.0032.
As to UCCUGGAACACCUAGCAUAGUAUUUAGUUA, the “pre-steady-state target cleavage rate” value is 0.151 ± 0.031.
Under AGGACCUACAGCUUGCAUCAGUAUUUAGUUA stands 0.193 ± 0.065; under UCGACCUACAGCUUGCAUACUAUUUUCAAA, 0.138 ± 0.028.
Take UCCUGGAUGUGCUAGCAUAGUAUUAAGUUA: the “pre-steady-state target cleavage rate” value was 0.0186 ± 0.0048.
Turning to UCCUGGAUGUGCUUGGAAAGUAUUUAGUUA, the “pre-steady-state target cleavage rate” value amounted to 0.0153 ± 0.0039.
Turning to UCCUGCUACAGCUUGCAUACAAUUUAGUUA, the “pre-steady-state target cleavage rate” value was determined as 0.0161 ± 0.0063.
In the case of UCCUGCUACAGCUUGCAUAGUAUAUAGAAA, the “pre-steady-state target cleavage rate” value turned out to be 0.136 ± 0.029.
As for UCGACCUACAGCUUGCACUAGUAUUUAGUUA, the “pre-steady-state target cleavage rate” value was 0.254 ± 0.081.
In the case of UCCACCUACAGCUUGCAUAGUAAUAAGUUA, the “pre-steady-state target cleavage rate” value came to 0.365 ± 0.042.
Consider “UCCUCCUACAGCUUGCAUAGUUAAAUCAAA [g10:g26:cont:t1A]”, for which the “pre-steady-state target cleavage rate” value amounted to 0.0418 ± 0.016.
On to UCGACCUACAGCUUGCUAAGUAUUUAGAAA, for which the “pre-steady-state target cleavage rate” value was found to be 0.0434 ± 0.012.
Under UCCUGGAACAGGAAGCAUAGUAUUUAGUAA stands 0.0207 ± 0.0047; under UCCUGGUACAGGAUGCAUAGUAUUUACAAA, 0.0132 ± 0.0054.
In the case of UCCUGGAUGAGGUUGGAUAGUAUUUAGUUA, the “pre-steady-state target cleavage rate” value was 0.124 ± 0.02.
In the case of UGGACCUACAGCUACCAUAGUAUUUAGUAA it was 0.31 ± 0.042.
As to UGGACCUACAGCUUGGUAAGUAUUUAGUUA, the “pre-steady-state target cleavage rate” value was 0.0396 ± 0.0067.
Regarding UCCUGCUACAGCUUCGUUAGUAUUUAGUUA, the “pre-steady-state target cleavage rate” value stood at 0.0986 ± 0.014.
Under UCCUCCUACAGCUUGCAUAGUAAUUACAAA stands 0.301 ± 0.054; under UCCUGGUACAGCUUGCAAAGUAUUUUCAAA, 0.117 ± 0.03.
On to UCCACCUACAGCUUGCAUAGUAUAAUCAAA, for which the “pre-steady-state target cleavage rate” value was 0.327 ± 0.056.
